Assay results published in PubChem BioAssay AID1963576 (National Center for Advancing Translational Sciences (NCATS), 2024).
Out of some 46,000 compounds screened, about 60 (0.1%) were called active. Roughly 3% stayed inconclusive and do not appear here. Calls come from the whole dose curve; as a rule, active = well fitted inhibition curve with a large enough effect; inconclusive = small, poorly fitted or top-dose-only effect; inactive = no such curve, though single readings can be large or run the other way. The list shows a part of the results.

Assay: Primary qHTS assay for Inhibitors of ovarian cancer metastasis using an organotypic tumor microenvironment (TME) model.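 For activity change, negative = inhibition: plate controls were DMSO wells for no effect and tomatine positive control wells for full effect.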 Note: nearly all actives have a fitted effect of over 65% in size.
Settings: SKOV3ip1-GFP adhesion/invasion on 3D omental model, fluorescence; series mostly up to 45.8 µM; activity change, negative = inhibition: at the top concentration
Summary of the method: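 qHTS, 4-pt dose (0.36-46 umol/L); SKOV3ip1-GFP, 1,200 cells/well, no FBS; primary omental fibroblast/mesothelial co-culture 48 h pre-grown; 2 h RT + 16 h 37 C; PBS wash, 4% PFA; GFP count 488/509 nm.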

Structure (SMILES) | activity change, negative = inhibition | outcome
Cc1ccc2oc(C(=O)Nc3ccc(S(=O)(=O)Nc4onc(C)c4C)cc3)cc(=O)c2c1 | inactive: -16.5% | –
CCOC(=O)c1c(C)[nH]c(C)c1S(=O)(=O)N1CCC(C(=O)N2CCN(c3cc(C)ccc3C)CC2)CC1 | inactive: 2.67% | –
Cc1ccc(NC(=O)CCCn2c3ccccc3c(=O)c3cc(C)ccc32)c(Br)c1 | – | inactive
CC1CCN(S(=O)(=O)c2ccc3c(c2)N(CC(=O)NCCc2ccc(Cl)cc2)C(=O)CO3)CC1 | inactive: -2.77% | –
Cc1c(Cl)cccc1Nc1nc(N)nc(CSc2nc3ccccc3s2)n1 | inactive: 2.19% | –
O=C1SC(Nc2ccc(Cl)cc2)C(=O)N1Cc1ccccc1 (stereo not drawn) | inactive: 8.66% | –
CCCc1cc(=O)n2[nH]c(NCc3ccc(CC)cc3)nc2n1 | inactive: -4.77% | –
CCCCNC(=O)C1=CC(c2ccc3c(c2)OCO3)=NS(=O)(=O)N1C | inactive: 6.43% | –
COc1cccc(C(=O)NCC(=O)OCc2cc(=O)n3nc(C)sc3n2)c1 | inactive: 6.08% | –
O=C(CSc1ncc(S(=O)(=O)c2ccc(Cl)cc2)c(=O)[nH]1)Nc1ccc2c(c1)OCCO2 | inactive: -9.46% | –
CCCC(=O)Nc1nnc(SCc2cc(=O)c3ccc(C)cc3[nH]2)s1 | inactive: -19.4% | –
Cc1ccc(-n2nc(CO)c(C(=O)NCCc3ccccc3)n2)cc1 | inactive: -7.79% | –
COc1cccc(-n2c(=O)c3sc4ccccc4c3n(CC(=O)Nc3ccccc3OC)c2=O)c1 | inactive: -14.5% | –
Cc1ccc(Cl)cc1N1CCN(C(=O)Cn2ncc3c([nH]c4ccccc43)c2=O)CC1 | inactive: -0.471% | –
O=S(=O)(c1ccccc1)c1nnn2c1nc(Nc1ccccc1)c1cc(Cl)ccc12 | inactive: -3.25% | –
CCC(Sc1nc2ccncc2[nH]1)C(=O)Nc1ccc(F)cc1 (stereo not drawn) | inactive: 6.14% | –
CCOc1ccc(N(C)C(=O)C2CCN(S(=O)(=O)c3ccc4c(c3)CCCN4C(C)=O)CC2)cc1 | inactive: -2.94% | –
CCCCOc1nnc(-c2ccc(OCC)cc2)c2ccccc12 | inactive: -0.0311% | –
COc1ccc(CCNC(=O)CCc2cn(Cc3ccc(C)cc3)c3ccccc23)cc1OC | – | inactive
Cc1cc(C)cc(NC(=O)C(NS(=O)(=O)c2cccc3nsnc23)c2ccccc2)c1 (stereo not drawn) | inactive: 3.33% | –
Cc1ccc(Cn2cnc3c(oc4ccccc43)c2=O)cc1 | inactive: 12.6% | –
O=C(CSc1nnc(-c2ccc(Cl)cc2)o1)N1CCc2ccccc21 | – | inactive
Cc1ccccc1NC(=O)c1c2c(nc3ccccc13)C(=O)N(C1CCCCC1)C2 | inactive: 27.8% | –
COc1cc2nc(N3CCN(C(=O)C4CCCO4)CC3)nc(N)c2cc1OC (stereo not drawn) | inactive: -9.92% | –

Structure (SMILES) | activity change, negative = inhibition | outcome
CCc1nc2nc(C)cc(Nc3ccc(Br)cc3F)n2n1 | inactive: -1.46% | –
O=C(Nc1onc2c1CCCC2)c1ccc(Cl)cc1 | inactive: 3.49% | –
Cc1oc2ccc(O)c(CN(C)Cc3ccccc3)c2c1C(=O)Nc1cccc(Cl)c1C | inactive: -2.94% | –
CCCCn1c2ccccc2c2nnc(SCC(=O)Nc3ccc(NC(C)=O)cc3)nc21 | inactive: 12% | –
CCc1c(C)sc(NC(=O)c2cc(-c3ccc(OC)cc3)on2)c1C#N | inactive: 4.23% | –
COC(=O)c1cc(S(=O)(=O)N2CCN(c3cccc(C)c3)C(C)C2)c[nH]1 (stereo not drawn) | inactive: 4.92% | –
CC(=O)Nc1ccc(S(=O)(=O)Nc2ccc(-c3cn4c(C)csc4n3)cc2)cc1 | – | inactive
CCOc1ccc(CNC(=O)c2cc3c(=O)n(Cc4cccs4)ccc3nc2C)cc1 | – | inactive
Cc1ccc2c(=O)c(C(=O)c3ccc(F)cc3)cn(CC(=O)NC3CCCCC3)c2n1 | inactive: 6.33% | –
COc1ccccc1-c1cc(C(F)(F)F)nc(S(=O)(=O)CCCC(=O)Nc2cc(C)ccc2O)n1 | inactive: -2.02% | –
CCOc1ccc(-n2c(SCC(=O)NCc3ccco3)nc3c([nH]c4ccccc43)c2=O)cc1 | inactive: -10.3% | –
Cc1cccc(-c2nnc3n(CCc4ccccc4)c(=O)c4ccccc4n23)c1 | inactive: -0.757% | –
COc1cccc(CNC(=O)c2cc3n(n2)CCCN(Cc2ccc(C)cc2)C3=O)c1OC | inactive: -2.15% | –
COc1ccc(-c2nc3ccc(NS(=O)(=O)c4ccccc4)cc3o2)cc1 | inactive: -3.15% | –
COc1ccc2c(Sc3ccccc3)c(C(=O)NCc3ccc(OC(C)C)cc3)[nH]c2c1 | inactive: -6.28% | –
CN1CCN(c2cccc(Nc3nc4c(-c5ccc(S(C)(=O)=O)cc5)cccn4n3)c2)CC1 | inactive: -5.08% | –
COc1ccc(Cl)cc1NC(=O)Cn1c(=O)n(Cc2ccco2)c(=O)c2ccc(C(=O)NC3CCCC3)cc21 | inactive: 13.7% | –
CCOc1ccc(CNC(=O)c2ccc(-c3nc(CSc4ccc(C)cc4)c(C)o3)cc2)cc1 | inactive: 0.94% | –
CCN(Cc1ccccc1)C(=O)Cn1c(=O)n(-c2ccc(OC)cc2OC)c(=O)c2c(C)c(C)sc21 | – | inactive
CCOc1ccc(NC(=O)c2c(NC(=O)Cc3ccccc3)sc3c2CCCC3)cc1 | – | inactive
Cc1ccc(C)c(NC(=O)N2CCN(C)c3ncccc32)c1 | inactive: -9.23% | –
Cc1ccc(Cn2ccnc2SCC(=O)Nc2ccc3c(c2)OCO3)cc1 | inactive: -20.7% | –
Cc1ccc(-n2c3nc(=O)[nH]c(=O)c-3cc3c(Cl)cccc32)cc1 | inactive: -15% | –
Cc1ccc(NC(=O)c2sc(-n3nc(C)c(Cc4ccc(Cl)cc4)c3C)nc2C)cc1 | inactive: 2.21% | –
